From US6933364 (TOSOH, dated 2005)

Target: bovine TSH (bovine, UniProt P01217 part only; P01223 part only)
Assay: gel filtration; unlabelled bTSH displaces ^125I-TSH from the complex

B1: sTSHR No. 5 in FIG. 1 (baculovirus gp 67 signal sequence added to amino acid residues of the 21st to the 410th of natural TSHR, six histidine residues at the … (receptor)
chain: not shown
- binding result: binds

B2: sTSHR No. 6 in FIG. 1 (baculovirus gp 67 signal sequence added to amino acid residues of the 21st to the 415th of natural TSHR, six histidine residues at the … (receptor)
chain: not shown
- binding result: binds
